# Test results from article PMC10726135.
# The list shows a part of the results. At the low end of the ranking the order means little. Measured with an extract: partners may take part in the binding.
# Target: T1, HNF4alpha2 (COS-7 nuclear extract) (UniProt P41235)
# T1 sequence: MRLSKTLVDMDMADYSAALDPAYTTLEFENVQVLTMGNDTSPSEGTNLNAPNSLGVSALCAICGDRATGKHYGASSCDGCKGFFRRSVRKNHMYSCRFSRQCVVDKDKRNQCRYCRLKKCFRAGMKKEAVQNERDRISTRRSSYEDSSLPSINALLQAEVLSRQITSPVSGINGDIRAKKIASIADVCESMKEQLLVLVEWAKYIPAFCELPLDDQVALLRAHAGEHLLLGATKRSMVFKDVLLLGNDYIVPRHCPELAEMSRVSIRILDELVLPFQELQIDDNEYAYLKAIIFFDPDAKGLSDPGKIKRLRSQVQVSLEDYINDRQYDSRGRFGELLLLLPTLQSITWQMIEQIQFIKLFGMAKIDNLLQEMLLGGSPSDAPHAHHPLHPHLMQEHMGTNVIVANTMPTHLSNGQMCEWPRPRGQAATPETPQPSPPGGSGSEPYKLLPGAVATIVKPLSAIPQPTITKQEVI
# Test: protein-binding microarray
# Details: COS-7 nuclear extract on double-stranded Agilent 4x180k PBM; binding buffer, salt, pH and temperature not given; high values mean tight binding; double strand, one strand shown; sequences stand for … in …GCCTAGGGAGATTAGAGTATCGGTCGA
row,Sequence,binding signal (log2 normalized intensity)
1,TAACCTTTGGGTGTGTTCAGCGAGGAATGT,2.01
2,CCCTTGATCAAAAACTGCCTAAATCCAAAG,-1.2
3,GAAGGTCCTTCACTAAAGTTACAAGATCTT,-0.273
4,ACGCTGGTCAGCATCCTGCTTGTGAGACCG,-0.854
5,TCAGCTCATTCAAAGTCCAAAAAGAATCAG,1.8
6,CTTTAGTTCAGGGAAGAGGGCACTCAGGCT,-1.1
7,CGGGGGCCCTTCCCCCCTCTGCAGCCTTAC,3.11
8,CTCCAGACACGGGGATAACACCTGCCTTAG,-1.3
9,ATTTGTTAAGAACTGGAGTAAAGGTCACTC,4.15
10,ATATCTATATGTTTACATATCACTGTACTC,2.08
11,GCCTGCATTGGAGGCCCTCTGTTGCTTCAA,-0.781
12,GGATGGCATGTCTCTGGTCGGGGAGGTGTT,1.53
13,CCAGCTGGTAAATAAAGGAACTTACGAAGA,-1.04
14,GAGATTCCTCTGCACAATAAAACTTGGTCG,0.213
15,AAGGGAGTAAAGGTCGTTCTATCGGAGAAC,3.52
16,AGTCAGTCAAAATGAATAGTCCTTTAGGAA,0.881
17,TCTTTTTGTTGTTAGAACAAAGTCCAAATT,5.22
18,AAAGTCCGGAATTTCCTCCTGGCAGAGCAT,-0.948
19,TTGTTAGACCCTTATCAGTAGTTCTCCTTT,0.646
20,TCCCGAAAGTGACCCTCTGCCCCCTACACA,5.37
21,GGTCCAAGGTTCAGAGCCTGGCTGGCCTGG,0.818
22,CCCCACTGAAAGTGTGTTAAATTGAATTGG,0.972
23,CAGAGTCACCTGTAGGGATGTGGGACTTAA,-0.0571
24,ATTCTCCCATTTTATGGGCTAACGCTGCTG,-0.681
25,AGGGTTGAAGAAAGATCACACAAATGGATC,-1.15

row,Sequence,binding signal (log2 normalized intensity)
1,CAACATGGACTTTGAGTCATAAGAAACATT,3.72
2,CCTCAGTGTGGGACTTTGGTCTGCTGAGTC,3.36
3,CTCTGAATCCTCAACATCCAGCACAGTGCT,-1.25
4,CTGTTGTGACATACTGCCTTTCTAGAACCA,-0.661
5,ATTCGTTCATCAGATTAGAAGGCAGAGAAA,0.773
6,GGGCAGGGTCAGAACCTGCCCATGACCTTT,5.92
7,TGTCTACAAACACAGAAGTGGACCTTCACC,4.86
8,GCAAGGGTGGTGACAAAGACAGATTAGATC,0.843
9,AATCTCTCAAATCTAGCCAATGATGCTAGC,-1.21
10,CCTCCAATCAGGACAGACTGGTTGATCTGG,0.575
11,CAATCCCATGACCTTTGTACTAATGATTTG,5.84
12,CCAAATAGGTCCCTGCTTCCAAGTCTCAGC,-1.1
13,CGCAGATCCCCGCTCCCCTCCCCCACCCGC,6.35
14,CAATCTTCTGGCCCCATCTATCTAGCCTGA,0.757
15,CTGATCACTACAAGCTTTGAAGGCAAGATA,-1.13
16,TCTAGGGTTGCCCAGGGAGAGCTGGACTTT,6.11
17,ATTGTGCTGACTGGTTGGAATTCCAGTGTT,1.17
18,TCTGCCGAAGATATTTAACCTAAATCTAGT,-1.14
19,AACTATTGAGACTTTGGGGTTTTATGGCAC,1.27
20,ATCAAACAGATGTAGACATTGGAATGCGGG,0.957
21,GAGATTACATTTGACTGAGGTGCAGGACAA,0.246
22,TCAACAATTCTATGAGTAGGTACAAATTCC,1.78
23,AGGCCTTCAACTGATAAGAAGGGGCCTAGC,-1.17
24,TGGGCCAGGTATTTGGACTTTTTGTAGTTT,3.1
25,ACCCAGTGAATTCCTTCCTTATCAGCAGCC,-0.73

row,Sequence,binding signal (log2 normalized intensity)
1,CTTTTGAGGGTGACCGATCGTTATTGCCTT,1.4
2,CTCAAAGTCCACCAACTCTGTGAATTCATT,1.48
3,GCGTAGTTCAGAGAAAACGAGGCACTATCT,-1.05
4,AACCTGGCTGCGAGTCCCTGCTGTGTCACG,-1.2
5,GGGTTGAGTGGTGACTGAAGTCCAACCCTC,2.21
6,ATCAATACCAGCCAATTAGAAGGCTCCCTG,-1.19
7,AGCTCCCCTTTTAAACTGAAGCATGCTATT,1.38
8,AAGTGCAAGGGCCCAGAGGAAGGAATGCAC,-1.04
9,GTCGAAACTACAAACGGATATTTGATCAAA,0.511
10,GGCGATAACTCCTTTGTGTGAATCGACCTT,4.02
11,AGGGTACACACCGTTAGCCAATATTTGCAA,-1.11
12,TGTGATAAGAAATGAATGTCACTTTCTGAC,0.229
13,TCCATCATTCATACATTTGCCTGAACTTTA,2.3
14,AAATGTTATGGCTGGTTTGGTCTTTTATCT,1.95
15,CCATCCTACAGGGTATGAATTTAACCTTTG,4.2
16,CCCTGGACCTTGTCATACTGGTTGAATGGA,2.5
17,AATTCACGTCATTTTGTCACCTACATGTGA,1.67
18,GGGTACAGACAATAGGAAGAGTGAGGTCAC,1.58
19,TTATTTCCCCTTTCTGTTGGAAGCTGATAA,1.84
20,ATCACGGACTATCCCCGTCCGCGGAAGCAC,0.338
21,TTTCTGAAGACCTTCAACTGATTAGATAAG,-0.765
22,AAGTTCAAGTAGATAAAATCAAACAGATGT,1.02
23,AAAAGTATGTCATAATGTACTCCACTGTGC,1.63
24,GGGCCCTGACCTCAAGTGACCTTTGACCTC,12.1
25,GAACAAAGGTTGGTGTGAACCAGGGTTAAG,0.583

row,Sequence,binding signal (log2 normalized intensity)
1,GATACAGTTATGAAAAGAAACAGCCAAAAG,-1.13
2,TGAACTATTGAACCACCAGATAGAGCTTTT,0.21
3,GCATTAGTTATATCTTACCTCCTTCTCCCC,3.05
4,TTGAGAGAGATTAAAGGTCAAGCCCAACCA,3.71
5,TGTCTCACCTCGCTATCACCCCGATAAGGA,2.94
6,GGGCTCAAACAATCCTCCCACCTCAGCATC,0.826
7,TCCCCACCTTCCATTACCACATTCTCACCA,1.8
8,CTTTGATAGCCAAGCCAACCAGGAGAATTT,2.12
9,CTTTAACGACCTTTGGACTTGAATTATCCT,7.84
10,CTAACCTTGAGGAGCCCTATCCGCAGCTGC,-1.16
11,TTACACTGGCTGCCCTGGGGATCAAAGCGT,-0.591
12,TAAAGTATGTGGTGGGTGTGGTGATGGCAG,1.76
13,CCAGTTGGTGGGTCAAGGTGCAAAGAGATG,2.09
14,TTGACTCTTCCCATCTAACTGCCCCTGATA,3.78
15,GAACATCTGATTTCCCCGTCCCAAGCTGAG,3.3
16,GTCAACAGCCAGCCTCAAAGATCAAAGGTA,2.18
17,CAAAGGGCTTATTTTAGGAGCCTCCAATCA,-1.2
18,TATCCAGTCAATCCCGTGGACTTTGCCTGC,6.35
19,AATCTGCAGCCGCCGGAGAATTAAACTGCC,-1.15
20,AGGATGAGAATCCACCTGCCTGCTTGGCCT,-1.17
21,GGAATGCTATTTGCATTGACACAACCCAAC,-1.12
22,GCAGTGATCAGTGTTGAGAATCCCTCCCCT,3.59
23,TGGCATTCTTGAGCTACCGCCTGAACCTTG,2.27
24,AACCCTGGCCACTCCCTGATAGAGAACAAG,-1.23
25,AGAGAAACAAATCTGCTTTCTACCCTGAGG,-0.952

row,Sequence,binding signal (log2 normalized intensity)
1,CTGCTAACAGATAAAGGGTGGTAAAGATGT,0.867
2,CACAGAGCAAAGGTCATGCATAGAAGTATG,4.18
3,AGGCTGAAGGGAAGCTCTGGGAGTGCCCTT,1.93
4,TTTGCAACCTTTGATAACCTACAACCTTCT,0.304
5,ACAAAGTCTATGCTAAGATGGTCTCAGGTG,1.45
6,TCAGCAGAAGGCCCCAGGTGAACCAGGGTG,-1.01
7,TTTTCCTCGGGTGTCTCCGAGATAAGGCGT,0.759
8,GTGACCTTAGACCCCTGAATAGGTCTTGGA,3.12
9,ATATTATCATTGCCTCTGGTATGCAGAAAA,1.47
10,CTGGCAAAGCCATGAAGCAATTCTGAGCCC,-0.972
11,GTCTGTGTTCACATAGGGGCCTTTAGCACC,1.27
12,CACAAGGAATGCCCTTATCTCCCAGCCACC,1.75
13,AGTTGGTATTTAGTAAATATTAGGCAAGCT,-1.14
14,CCACAGCAGAAGGCAACAGCTCTGGAGGAT,-1.28
15,GGCATAGTTGCATATCTGGAATTTCAAAGG,1.52
16,CATAACTCAGCGGGAGGCAAGATAAGGGTA,-1.17
17,GCTCAAGCCTGTTCCGACCTTAGTACTCTG,4.08
18,CTCATTCTGATATGCACTGTCAGTTTTTCC,1.13
19,TTGTACATGGGAATAGACATTCCAGAAATA,-0.165
20,CCTCTGTAGGGCAGCAGCCGGCCTCTTAAC,-1.13
21,ATGCTTCAGTGAGCCTTGACCTTCATGCTA,2.25
22,GCTTCAGGAGTCCACTGTGTTCTTGTTTGC,1.64
23,TGGGACTTAATCCTTGTCTGTTTGGCCTTA,2.11
24,ACACAAAGACATTGCCTGGCATTATCAGTG,-1.05
25,AGAGGGGGTTTGTTTTTTGCCCTTTGTACC,8.01

row,Sequence,binding signal (log2 normalized intensity)
1,GATTGGACTCTGCACTCCAGCCTGGGTGAC,3.07
2,ATGTTGACCCGAGTGCCCTTTGGCAAACAG,2.81
3,GATCTCCGTGTTTGGAATTGTGTCACTCCC,1.97
4,TGTGTTGGCAAGAGATCTGCAGGGTTAAAT,1.33
5,GTGACCAAGAATGTCTAACCTCCTGGGAAT,-1.09
6,GACAGGGTAATTTACAGAACTCTTCGAAGA,-0.991
7,ACCTTTGACCCTTCTCTGGGAGAAAGGGAG,2.99
8,ACATTCTTTAGCATATTACACCTGTAGCTT,-0.577
9,GCAAGGGCCCCCACTAGAGAGACCGTCCCT,2.39
10,ATCACTCAAGAAATGGCAGTTTTAAGAGCT,-1.1
11,AGTTTGAACTTTGACTTATTTAGTAGTGGC,3.74
12,CTTGGATCCTCAGGGTTCATAGATGATAGT,1.33
13,TGAAAGCTGCTTCCCAGTTGCTCTGGAGTG,-1.11
14,AACAACCCATCCTTGACACATCTGATTAGA,-0.719
15,TTATTGATAACCCTATAAGGTAGAATCTAT,-1.06
16,GACCTGTATCTTGTGGTGACCTCTTATCTC,3.39
17,CTGCAGAGAACAGCAGCTATCAGTGGTCCG,1.03
18,TGTTGTTGATTTAACATTTGTGATCTGGCA,1.64
19,CCTTGCAATGCTGGAGGGACTGTGATGAAG,0.699
20,CGATAATAGAGATTGCTTAATGCAAACTCC,-0.71
